Among the test systems are WM115; WM1716; WM1745; WM3526; WM3619; WM451Lu.
Common to all, as to assay: cell count relative to DMSO control; melanoma cells; higher = more viable cells
Conditions in all cases: library dose: low library concentration; 72 h

The other results are listed elsewhere or left out. Most values come without repeats; read them as rough.

Drawing on the supplement of paper PMC4604168 (melanoma cell lines), this text covers cell count for 11 compounds.
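Note: cell number obtained by counting DAPI-stained nuclei in high-throughput microscope images with image analysis software, screen run in 1,536-well plates.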

Consider `Cc1ccc(Nc2nccc(N(C)c3ccc4c(C)n(C)nc4c3)n2)cc1S(N)(=O)=O` [Pazopanib] + O=C1NC(=O)/C(=C/c2ccc(-c3ccc(F)cc3O)o2)S1 [AS252424] (first compound 0.4 µM, partner dose 1 µM), for which the cell count in the assay with WM115 was 108%; in the assay with WM1716, 76.1%; with WM1745 it was 101%; with WM3526, 97.5%; in the assay with WM3619, 89%; in the assay with WM451Lu, 121%.

Turning to `CC1(C)CCC(c2ccc(Cl)cc2)=C(CN2CCN(c3ccc(C(=O)NS(=O)(=O)c4ccc(N[C@H](CCN5CCOCC5)CSc5ccccc5)c(S(=O)(=O)C(F)(F)F)c4)cc3)CC2)C1` + COc1cc2ncnc(Nc3ccc(Oc4ccccc4)cc3)c2cc1OC [SrcI1] (first compound 0.4 µM, partner dose 2 µM), the cell count in the assay with WM115 came to 80.3%; with WM1716, 85.6%; in the assay with WM1745 it was 27.6%; with WM3526 it was 102%; in the assay with WM3619, 102%; in the assay on WM451Lu, 51.9%.

For `O=C(/C=C/c1cccnc1)NCCCCC1CCN(C(=O)c2ccccc2)CC1` + O=C(O)[C@@H]1[O][Sb](=[O])([O][Sb]2(=[O])[O][C@H]([C@H](O)CO)[C@H](O)[C@H](C(=O)O)[O]2)[O][C@H]([C@H](O)CO)[C@@H]1O [stibogluconate] (first compound 0.01 µM, partner dose 2 µM), the cell count in the assay on WM115 stood at 106%; in the assay with WM1716 it was 108%; with WM1745, 116%; in the assay with WM3526 it was 110%; with WM3619 it was 107%; in the assay on WM451Lu, 106%.

`CC1(C)CCC(c2ccc(Cl)cc2)=C(CN2CCN(c3ccc(C(=O)NS(=O)(=O)c4ccc(N[C@H](CCN5CCOCC5)CSc5ccccc5)c(S(=O)(=O)C(F)(F)F)c4)cc3)CC2)C1` + COc1cc(N2CCC(N3CCN(C)CC3)CC2)ccc1Nc1ncc(Cl)c(Nc2ccccc2S(=O)(=O)C(C)C)n1 [NVP-TAE684] (first compound 0.4 µM, partner dose 0.08 µM): the cell count turned out to be 77.8% in the assay with WM115; 54.4% with WM1716; 15.2% in the assay on WM1745; 77.2% with WM3526; 76% with WM3619; 83.7% with WM451Lu.

Consider `CC1(C)CCC(c2ccc(Cl)cc2)=C(CN2CCN(c3ccc(C(=O)NS(=O)(=O)c4ccc(N[C@H](CCN5CCOCC5)CSc5ccccc5)c(S(=O)(=O)C(F)(F)F)c4)cc3)CC2)C1` + COC(=O)c1sccc1S(=O)(=O)Nc1ccc(Nc2ccccc2)cc1OC [GSK0660] (first compound 0.4 µM, partner dose 1 µM), for which the cell count with WM115 amounted to 82.4%; in the assay with WM1716 it was 74.2%; in the assay with WM1745, 9.69%; with WM3526, 102%; with WM3619 it was 62%; with WM451Lu, 82.1%.

On to `Cc1ccc(Nc2nccc(N(C)c3ccc4c(C)n(C)nc4c3)n2)cc1S(N)(=O)=O` [Pazopanib] + COC(=O)c1sccc1S(=O)(=O)Nc1ccc(Nc2ccccc2)cc1OC [GSK0660] (first compound 0.4 µM, partner dose 1 µM), for which the cell count with WM115 amounted to 104%; with WM1716, 92.7%; in the assay on WM1745, 84.7%; in the assay on WM3526, 88.5%; in the assay with WM3619, 81.4%; in the assay on WM451Lu it was 92.9%.

Consider `Cc1ccc(Nc2nccc(N(C)c3ccc4c(C)n(C)nc4c3)n2)cc1S(N)(=O)=O` [Pazopanib] + Clc1ccc(Nc2nnc(Cc3ccncc3)c3ccccc23)cc1 [vatalanib] (first compound 0.4 µM, partner dose 2 µM), for which the cell count is 101% in the assay with WM115; 94.2% in the assay on WM1716; 86.5% in the assay with WM1745; 74.8% with WM3526; 83.6% in the assay with WM3619; 90% in the assay with WM451Lu.

In the case of `CC1(C)CCC(c2ccc(Cl)cc2)=C(CN2CCN(c3ccc(C(=O)NS(=O)(=O)c4ccc(N[C@H](CCN5CCOCC5)CSc5ccccc5)c(S(=O)(=O)C(F)(F)F)c4)cc3)CC2)C1` + CC(=O)c1c(C)c2cnc(Nc3ccc(N4CCNCC4)cn3)nc2n(C2CCCC2)c1=O [palbociclib] (first compound 0.4 µM, partner dose 0.04 µM), the cell count in the assay with WM115 amounted to 58.9%; with WM1716, 46%; in the assay on WM1745, 18.3%; in the assay with WM3526, 74%; in the assay on WM3619, 64.4%; with WM451Lu, 74.1%.

Consider `O=C(/C=C/c1cccnc1)NCCCCC1CCN(C(=O)c2ccccc2)CC1` + CC(=O)c1c(C)c2cnc(Nc3ccc(N4CCNCC4)cn3)nc2n(C2CCCC2)c1=O [palbociclib] (first compound 0.01 µM, partner dose 0.04 µM), for which the cell count is 89.6% in the assay on WM115; 62.5% in the assay on WM1716; 83.2% in the assay with WM1745; 61.4% with WM3526; 69.2% with WM3619; 79.7% in the assay on WM451Lu.

Take `Cc1ccc(Nc2nccc(N(C)c3ccc4c(C)n(C)nc4c3)n2)cc1S(N)(=O)=O` [Pazopanib] + COc1ccc(Cl)c(Nc2nc3ccccc3nc2NS(=O)(=O)c2cccc(NC(=O)C(C)(C)N)c2)c1 [XL147] (first compound 0.4 µM, partner dose 0.8 µM): the cell count came out at 89.8% in the assay with WM115; 83.1% with WM1716; 90.5% in the assay with WM1745; 108% with WM3526; 75.5% in the assay with WM3619; 85.9% in the assay on WM451Lu.

For the compound `CC1(C)CCC(c2ccc(Cl)cc2)=C(CN2CCN(c3ccc(C(=O)NS(=O)(=O)c4ccc(N[C@H](CCN5CCOCC5)CSc5ccccc5)c(S(=O)(=O)C(F)(F)F)c4)cc3)CC2)C1` + Cn1cnc2c(F)c(Nc3ccc(Br)cc3Cl)c(C(=O)NOCCO)cc21 [selumetinib] (first compound 0.4 µM, partner dose 0.015 µM), the cell count in the assay with WM115 was 69.2%; in the assay on WM1716, 75.8%; in the assay with WM1745, 14.5%; in the assay on WM3526 it was 81%; in the assay with WM3619, 77.1%; in the assay on WM451Lu it was 92.5%.
